Results on 1 molecule are retold here after article PMC3962387 (2014).

One may read the Kd as the free concentration of one partner at which half of the binding sites on the other are occupied at equilibrium, for simple one-to-one binding.

The target of the test is Amyloid-beta 1-42 oligomers 1-42 (Homo sapiens, UniProt P05067). The test is described as follows: fluorescence cell-binding assay (AβOs-FITC on EphA4-Flag HEK293 cells).

B1: EphA4 (protein)
chain: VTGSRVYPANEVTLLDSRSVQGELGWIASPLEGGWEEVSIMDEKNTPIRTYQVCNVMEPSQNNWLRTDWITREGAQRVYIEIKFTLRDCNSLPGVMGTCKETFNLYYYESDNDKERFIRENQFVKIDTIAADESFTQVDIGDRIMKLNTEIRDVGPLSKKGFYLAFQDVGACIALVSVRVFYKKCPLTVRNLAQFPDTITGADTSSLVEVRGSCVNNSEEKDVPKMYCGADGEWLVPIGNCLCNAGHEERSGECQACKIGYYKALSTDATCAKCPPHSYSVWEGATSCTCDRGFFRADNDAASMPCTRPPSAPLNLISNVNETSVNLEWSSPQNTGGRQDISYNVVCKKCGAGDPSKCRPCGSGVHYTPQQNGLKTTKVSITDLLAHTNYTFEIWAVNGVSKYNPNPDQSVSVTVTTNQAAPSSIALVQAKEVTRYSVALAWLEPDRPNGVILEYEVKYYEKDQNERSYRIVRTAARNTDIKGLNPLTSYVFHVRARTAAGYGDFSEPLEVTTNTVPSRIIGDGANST
B1 displayed a dissociation constant Kd of 22 µM.
